Source: the supplement of paper PMC4967469
Lines with a small IC50 respond at low doses; a fit beyond the top or the lowest dose is shown as a bound at that dose. AUC, from the same fit, is the share of area under the viability curve across the 256-fold dose range; the more sensitive the line, the further below 1. The top dose, if marked as inferred, is not printed in the source and was worked back from the curve model. For some assays here: Where an entry number is given, a second screen of the drug exists; the two often differ.

These cell lines were tested with O=C1NC(=O)c2c1c(-c1ccccc1Cl)cc1[nH]c3ccc(O)cc3c21 [Wee1 inhibitor 681640] (assay: Viability of human cancer cell lines after 72 h of drug (GDSC screen)). Settings: top dose 2 µM; top dose inferred.
Description: (§1)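 Human cancer cell lines in 384-well plates, medium with 10% serum, drug for 72 h over a 256-fold dose range (nine 2-fold or five 4-fold steps up to the top dose). Adherent lines were fixed and stained with the nucleic acid dye Syto60, suspension lines read with resazurin; signal relative to control wells, capped at 0 and 100%. One two-parameter sigmoid per drug and line, fitted in a mixed model over all curves with the slope shared within a line.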
Cell Line HEC-1 (endometrium, adherent) has an AUC of 0.943 and an IC50 of over 2 µM.
HGC-27 (stomach, adherent) was tested, and the AUC was 0.946 and the IC50 was over 2 µM.
HSC-2 (head and neck, adherent) was tested, and the AUC was 0.963 and the IC50 was over 2 µM.
HT55 (large intestine, adherent) showed an AUC of 0.99 and an IC50 of over 2 µM.
With HT-115 (large intestine, adherent) the AUC was 0.989 and the IC50 was over 2 µM.
HT-1197 (bladder, adherent) showed an AUC of 0.959 and an IC50 of over 2 µM.
Hs683 (glioma, adherent) gave an AUC of 0.951 and an IC50 of over 2 µM.
Work on Hs939-T (melanoma, adherent) yielded an AUC of 0.986 and an IC50 of over 2 µM.
In the case of HuH-7 (liver, adherent), the AUC is reported as 0.977 and the IC50 is reported as over 2 µM.
In the case of HuO9 (osteosarcoma, adherent), the AUC is reported as 0.835 and the IC50 is reported as 1.52 µM.
For HuP-T3 (pancreas, adherent), the AUC was 0.971 and the IC50 was over 2 µM.
HuP-T4 (pancreas, adherent) gave an AUC of 0.983 and an IC50 of over 2 µM.
Cell Line IGR-1 (melanoma, adherent) has an AUC of 0.948 and an IC50 of over 2 µM.
IHH-4 (thyroid, semi-adherent) gave an AUC of 0.865 and an IC50 of 1.22 µM.
JEG-3 (urogenital system, adherent) gave an AUC of 0.883 and an IC50 of 1.77 µM.
In the case of JHH-1 (liver, adherent), the AUC is reported as 0.873 and the IC50 is reported as over 2 µM.
K2 (melanoma, adherent) gave an AUC of 0.981 and an IC50 of over 2 µM.
For KMH-2 (thyroid, adherent), the AUC was 0.947 and the IC50 was over 2 µM.
In the case of KMRC-20 (kidney, adherent), the AUC is reported as 0.889 and the IC50 is reported as over 2 µM.
KYSE-50 (oesophagus, adherent) gave an AUC of 0.941 and an IC50 of over 2 µM.
Work on KYSE-150 (oesophagus, adherent) yielded an AUC of 0.937 and an IC50 of over 2 µM.
In the case of KYSE-220 (oesophagus, adherent), the AUC is reported as 0.927 and the IC50 is reported as over 2 µM.
KYSE-410 (oesophagus, adherent) showed an AUC of 0.961 and an IC50 of over 2 µM.
In the case of KYSE-450 (oesophagus, adherent), the AUC is reported as 0.984 and the IC50 is reported as over 2 µM.
Cell Line “LCLC-97TM1 (large cell lung carcinoma, adherent)” has an AUC of 0.903 and an IC50 of over 2 µM.
“LK-2 (lung squamous cell carcinoma, adherent)” gave an AUC of 0.955 and an IC50 of over 2 µM.

What follows are cell lines tested with O=C(c1cc(Cc2n[nH]c(=O)c3ccccc23)ccc1F)N1CCN(C(=O)C2CC2)CC1 [Olaparib] in the same assay as above. Settings: top dose 5 µM; screen: GDSC drug entry 1017; top dose inferred.
Description: as §1
For HEC-1 (endometrium, adherent), the AUC was 0.946 and the IC50 was over 5 µM.
HGC-27 (stomach, adherent) gave an AUC of 0.895 and an IC50 of 4.46 µM.
HSC-2 (head and neck, adherent) gave an AUC of 0.982 and an IC50 of over 5 µM.
HT55 (large intestine, adherent) was tested, and the AUC was 0.99 and the IC50 was over 5 µM.
HT-115 (large intestine, adherent) showed an AUC of 0.991 and an IC50 of over 5 µM.
For HT-1197 (bladder, adherent), the AUC was 0.985 and the IC50 was over 5 µM.
For Hs683 (glioma, adherent), the AUC was 0.988 and the IC50 was over 5 µM.
For Hs939-T (melanoma, adherent), the AUC was 0.969 and the IC50 was over 5 µM.
Work on HuH-7 (liver, adherent) yielded an AUC of 0.981 and an IC50 of over 5 µM.
HuO9 (osteosarcoma, adherent) gave an AUC of 0.963 and an IC50 of over 5 µM.
Work on HuP-T3 (pancreas, adherent) yielded an AUC of 0.968 and an IC50 of over 5 µM.
HuP-T4 (pancreas, adherent) was tested, and the AUC was 0.984 and the IC50 was over 5 µM.
Cell Line IGR-1 (melanoma, adherent) has an AUC of 0.974 and an IC50 of over 5 µM.
IHH-4 (thyroid, semi-adherent) was tested, and the AUC was 0.935 and the IC50 was over 5 µM.
Cell Line JEG-3 (urogenital system, adherent) has an AUC of 0.98 and an IC50 of over 5 µM.
JHH-1 (liver, adherent) gave an AUC of 0.983 and an IC50 of over 5 µM.
K2 (melanoma, adherent) was tested, and the AUC was 0.976 and the IC50 was over 5 µM.
KMH-2 (thyroid, adherent) showed an AUC of 0.982 and an IC50 of over 5 µM.
Work on KMRC-20 (kidney, adherent) yielded an AUC of 0.946 and an IC50 of over 5 µM.
KYSE-50 (oesophagus, adherent) showed an AUC of 0.99 and an IC50 of over 5 µM.
For KYSE-150 (oesophagus, adherent), the AUC was 0.979 and the IC50 was over 5 µM.
In the case of KYSE-220 (oesophagus, adherent), the AUC is reported as 0.985 and the IC50 is reported as over 5 µM.
KYSE-410 (oesophagus, adherent) was tested, and the AUC was 0.969 and the IC50 was over 5 µM.
In the case of KYSE-450 (oesophagus, adherent), the AUC is reported as 0.988 and the IC50 is reported as over 5 µM.
Cell Line “LCLC-97TM1 (large cell lung carcinoma, adherent)” has an AUC of 0.95 and an IC50 of over 5 µM.
With “LK-2 (lung squamous cell carcinoma, adherent)” the AUC was 0.989 and the IC50 was over 5 µM.

Same assay, conditions: top dose 10 µM; screen: GDSC drug entry 1495
With HEC-1 (endometrium, adherent) the AUC was 0.964 and the IC50 was over 10 µM.
In the case of HGC-27 (stomach, adherent), the AUC is reported as 0.802 and the IC50 is reported as 4.06 µM.
For HSC-2 (head and neck, adherent), the AUC was 0.931 and the IC50 was over 10 µM.
With HT-115 (large intestine, adherent) the AUC was 0.991 and the IC50 was over 10 µM.
With HT-1197 (bladder, adherent) the AUC was 0.913 and the IC50 was over 10 µM.
Hs683 (glioma, adherent) gave an AUC of 0.986 and an IC50 of over 10 µM.
In the case of Hs939-T (melanoma, adherent), the AUC is reported as 0.975 and the IC50 is reported as over 10 µM.
HuH-7 (liver, adherent) gave an AUC of 0.941 and an IC50 of over 10 µM.
HuO9 (osteosarcoma, adherent) was tested, and the AUC was 0.931 and the IC50 was over 10 µM.
Work on HuP-T3 (pancreas, adherent) yielded an AUC of 0.98 and an IC50 of over 10 µM.
For IHH-4 (thyroid, semi-adherent), the AUC was 0.917 and the IC50 was 9.89 µM.
With JEG-3 (urogenital system, adherent) the AUC was 0.952 and the IC50 was over 10 µM.
With JHH-1 (liver, adherent) the AUC was 0.965 and the IC50 was over 10 µM.
Cell Line K2 (melanoma, adherent) has an AUC of 0.975 and an IC50 of over 10 µM.
With KMH-2 (thyroid, adherent) the AUC was 0.955 and the IC50 was over 10 µM.
KMRC-20 (kidney, adherent) was tested, and the AUC was 0.983 and the IC50 was over 10 µM.
For KYSE-50 (oesophagus, adherent), the AUC was 0.982 and the IC50 was over 10 µM.
With KYSE-150 (oesophagus, adherent) the AUC was 0.979 and the IC50 was over 10 µM.
KYSE-220 (oesophagus, adherent) was tested, and the AUC was 0.926 and the IC50 was over 10 µM.
Work on KYSE-450 (oesophagus, adherent) yielded an AUC of 0.979 and an IC50 of over 10 µM.
With “LCLC-97TM1 (large cell lung carcinoma, adherent)” the AUC was 0.925 and the IC50 was over 10 µM.
Work on “LK-2 (lung squamous cell carcinoma, adherent)” yielded an AUC of 0.94 and an IC50 of over 10 µM.

The cell lines below were run with NC(=O)c1ccc(N(C(N)=O)c2c(F)cccc2F)nc1-c1ccc(F)cc1F [VX-702] in the same assay as above. Settings: top dose 2 µM; top dose inferred.
Description: as §1
For HEC-1 (endometrium, adherent), the AUC was 0.986 and the IC50 was over 2 µM.
HGC-27 (stomach, adherent) gave an AUC of 0.988 and an IC50 of over 2 µM.
In the case of HSC-2 (head and neck, adherent), the AUC is reported as 0.989 and the IC50 is reported as over 2 µM.
HT55 (large intestine, adherent) gave an AUC of 0.99 and an IC50 of over 2 µM.
In the case of HT-115 (large intestine, adherent), the AUC is reported as 0.991 and the IC50 is reported as over 2 µM.
Cell Line HT-1197 (bladder, adherent) has an AUC of 0.985 and an IC50 of over 2 µM.
In the case of Hs683 (glioma, adherent), the AUC is reported as 0.985 and the IC50 is reported as over 2 µM.
Hs939-T (melanoma, adherent) was tested, and the AUC was 0.985 and the IC50 was over 2 µM.
HuH-7 (liver, adherent) gave an AUC of 0.987 and an IC50 of over 2 µM.
Cell Line HuO9 (osteosarcoma, adherent) has an AUC of 0.969 and an IC50 of over 2 µM.
Cell Line HuP-T3 (pancreas, adherent) has an AUC of 0.983 and an IC50 of over 2 µM.
With HuP-T4 (pancreas, adherent) the AUC was 0.984 and the IC50 was over 2 µM.
IGR-1 (melanoma, adherent) gave an AUC of 0.984 and an IC50 of over 2 µM.
For IHH-4 (thyroid, semi-adherent), the AUC was 0.992 and the IC50 was over 2 µM.
JEG-3 (urogenital system, adherent) was tested, and the AUC was 0.991 and the IC50 was over 2 µM.
JHH-1 (liver, adherent) showed an AUC of 0.955 and an IC50 of over 2 µM.
With K2 (melanoma, adherent) the AUC was 0.982 and the IC50 was over 2 µM.
With KMH-2 (thyroid, adherent) the AUC was 0.99 and the IC50 was over 2 µM.
KMRC-20 (kidney, adherent) gave an AUC of 0.984 and an IC50 of over 2 µM.
In the case of KYSE-50 (oesophagus, adherent), the AUC is reported as 0.99 and the IC50 is reported as over 2 µM.
KYSE-150 (oesophagus, adherent) showed an AUC of 0.966 and an IC50 of over 2 µM.
KYSE-220 (oesophagus, adherent) gave an AUC of 0.985 and an IC50 of over 2 µM.
KYSE-410 (oesophagus, adherent) gave an AUC of 0.979 and an IC50 of over 2 µM.
Work on KYSE-450 (oesophagus, adherent) yielded an AUC of 0.988 and an IC50 of over 2 µM.
Cell Line “LCLC-97TM1 (large cell lung carcinoma, adherent)” has an AUC of 0.971 and an IC50 of over 2 µM.
“LK-2 (lung squamous cell carcinoma, adherent)” showed an AUC of 0.987 and an IC50 of over 2 µM.

What follows are cell lines tested with Cc1cc(N2CCOCC2)cc2[nH]c(-c3c(NC[C@@H](O)c4cccc(Cl)c4)cc[nH]c3=O)nc12 [BMS-536924] in the same assay as above. Settings: top dose 4 µM; screen: GDSC drug entry 1091; top dose inferred.
Description: as §1
Work on HEC-1 (endometrium, adherent) yielded an AUC of 0.928 and an IC50 of over 4 µM.
HGC-27 (stomach, adherent) showed an AUC of 0.949 and an IC50 of over 4 µM.
With HSC-2 (head and neck, adherent) the AUC was 0.932 and the IC50 was over 4 µM.
Work on HT55 (large intestine, adherent) yielded an AUC of 0.873 and an IC50 of 3.81 µM.
Work on HT-115 (large intestine, adherent) yielded an AUC of 0.947 and an IC50 of over 4 µM.
Work on HT-1197 (bladder, adherent) yielded an AUC of 0.947 and an IC50 of over 4 µM.
Hs683 (glioma, adherent) was tested, and the AUC was 0.974 and the IC50 was over 4 µM.
Cell Line Hs939-T (melanoma, adherent) has an AUC of 0.917 and an IC50 of over 4 µM.
In the case of HuH-7 (liver, adherent), the AUC is reported as 0.878 and the IC50 is reported as over 4 µM.
HuO9 (osteosarcoma, adherent) was tested, and the AUC was 0.801 and the IC50 was 2.2 µM.
HuP-T3 (pancreas, adherent) showed an AUC of 0.808 and an IC50 of 2.66 µM.
HuP-T4 (pancreas, adherent) was tested, and the AUC was 0.786 and the IC50 was 1.85 µM.
IGR-1 (melanoma, adherent) gave an AUC of 0.934 and an IC50 of over 4 µM.
For IHH-4 (thyroid, semi-adherent), the AUC was 0.954 and the IC50 was over 4 µM.
Cell Line JEG-3 (urogenital system, adherent) has an AUC of 0.954 and an IC50 of over 4 µM.
